Some of the results follow.
What was measured:
Test in all cases: glycan array binding signal (z-score within array); higher = stronger binding
Conditions in all cases: glycan notation: IUPAC condensed, linker removed
[1] = target: Neu5Ac(a2-3)Gal(b1-3)[Fuc(a1-4)]GlcNAc(b1-3)Gal(b1-4)[Fuc(a1-3)]GlcNAc
In short: (§1)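 The binding signal is a Z-score computed within each array and averaged over linkers. Arrays of the same protein sequence at different concentrations or buffers were also averaged together. Data originate from 3228 arrays in the Consortium for Functional Glycomics database, kept only where the protein sequence was available.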

[2] = target: Neu5Ac(a2-3)Gal(b1-3)[Neu5Ac(a2-3)Gal(b1-4)]GlcNAc
In short: as §1

[3] = target: Neu5Ac(a2-3)Gal(b1-3)[Neu5Ac(a2-6)]GalNAc
In short: as §1

Neu5Ac(a2-3)Gal(b1-4)Glc = target: Neu5Ac(a2-3)Gal(b1-4)Glc
In short: as §1

[4] = target: Neu5Ac(a2-3)Gal(b1-4)GlcNAc
In short: as §1

[5] = target: Neu5Ac(a2-3)Gal(b1-4)GlcNAc(b1-2)Man(a1-3)[GlcNAc(b1-2)Man(b1-4)GlcNAc(b1-2)Man(a1-6)]Man(b1-4)GlcNAc(b1-4)GlcNAc
In short: as §1

[6] = target: Neu5Ac(a2-3)Gal(b1-4)GlcNAc(b1-2)Man(a1-3)[Neu5Ac(a2-6)Gal(b1-4)GlcNAc(b1-2)Man(a1-6)]Man(b1-4)GlcNAc(b1-4)GlcNAc
In short: as §1

[7] = target: Neu5Ac(a2-3)Gal(b1-4)GlcNAc(b1-3)Gal(b1-3)GlcNAc
In short: as §1

[8] = target: Neu5Ac(a2-3)Gal(b1-4)GlcNAc(b1-3)Gal(b1-4)GlcNAc
In short: as §1

[9] = target: Neu5Ac(a2-3)Gal(b1-4)GlcNAc(b1-3)Gal(b1-4)GlcNAc(b1-3)Gal(b1-4)GlcNAc
In short: as §1

[10] = target: Neu5Ac(a2-3)Gal(b1-4)GlcNAc(b1-3)Gal(b1-4)[Fuc(a1-3)]GlcNAc
In short: as §1

[11] = target: Neu5Ac(a2-3)Gal(b1-4)GlcNAc(b1-3)GalNAc
In short: as §1

[12] = target: Neu5Ac(a2-3)Gal(b1-4)GlcNAc(b1-6)[Gal(b1-3)]GalNAc
In short: as §1

[13] = target: Neu5Ac(a2-3)Gal(b1-4)GlcNAc(b1-6)[Neu5Ac(a2-3)Gal(b1-3)]GalNAc
In short: as §1

[14] = target: Neu5Ac(a2-3)Gal(b1-4)GlcNAc6S
In short: as §1

[15] = target: Neu5Ac(a2-3)Gal(b1-4)[Fuc(a1-3)]GlcNAc
In short: as §1

[16] = target: Neu5Ac(a2-3)Gal(b1-4)[Fuc(a1-3)]GlcNAc(b1-3)Gal
In short: as §1

[17] = target: Neu5Ac(a2-3)Gal(b1-4)[Fuc(a1-3)]GlcNAc(b1-3)Gal(b1-4)GlcNAc
In short: as §1

[18] = target: Neu5Ac(a2-3)Gal(b1-4)[Fuc(a1-3)]GlcNAc(b1-3)Gal(b1-4)[Fuc(a1-3)]GlcNAc(b1-3)Gal(b1-4)[Fuc(a1-3)]GlcNAc
In short: as §1

[19] = target: Neu5Ac(a2-3)Gal(b1-4)[Fuc(a1-3)]GlcNAc(b1-6)[Gal(b1-3)]GalNAc
In short: as §1

[20] = target: Neu5Ac(a2-3)Gal(b1-4)[Fuc(a1-3)]GlcNAc(b1-6)[Neu5Ac(a2-3)Gal(b1-3)]GalNAc
In short: as §1

[21] = target: Neu5Ac(a2-3)Gal(b1-4)[Fuc(a1-3)]GlcNAc6S
In short: as §1

[22] = target: Neu5Ac(a2-3)Gal6S(b1-4)GlcNAc
In short: as §1

[23] = target: Neu5Ac(a2-3)Gal6S(b1-4)[Fuc(a1-3)]GlcNAc
In short: as §1

Neu5Ac(a2-3)GalNAc = target: Neu5Ac(a2-3)GalNAc
In short: as §1

[24] = target: Neu5Ac(a2-3)GalNAc(b1-4)GlcNAc
In short: as §1

[25] = target: Neu5Ac(a2-3)[GalNAc(b1-4)]Gal(b1-4)Glc
In short: as §1

[26] = target: Neu5Ac(a2-3)[GalNAc(b1-4)]Gal(b1-4)GlcNAc
In short: as §1

[27] = target: Neu5Ac(a2-3)[Neu5Ac(a2-6)]GalNAc
In short: as §1

Neu5Ac(a2-6)Gal = target: Neu5Ac(a2-6)Gal
In short: as §1

Neu5Ac(a2-6)Gal(b1-4)Glc = target: Neu5Ac(a2-6)Gal(b1-4)Glc
In short: as §1

[28] = target: Neu5Ac(a2-6)Gal(b1-4)GlcNAc
In short: as §1

[29] = target: Neu5Ac(a2-6)Gal(b1-4)GlcNAc(b1-2)Man(a1-3)Man(b1-4)GlcNAc(b1-4)GlcNAc
In short: as §1

[30] = target: Neu5Ac(a2-6)Gal(b1-4)GlcNAc(b1-2)Man(a1-3)[Gal(b1-4)GlcNAc(b1-2)Man(a1-6)]Man(b1-4)GlcNAc(b1-4)GlcNAc
In short: as §1

[31] = target: Neu5Ac(a2-6)Gal(b1-4)GlcNAc(b1-2)Man(a1-3)[GlcNAc(b1-2)Man(a1-6)]Man(b1-4)GlcNAc(b1-4)GlcNAc
In short: as §1

[32] = target: Neu5Ac(a2-6)Gal(b1-4)GlcNAc(b1-2)Man(a1-3)[GlcNAc(b1-2)Man(b1-4)GlcNAc(b1-2)Man(a1-6)]Man(b1-4)GlcNAc(b1-4)GlcNAc
In short: as §1

B1: LcH (Lens culinaris), P02870 (protein)
chain: TETTSFSITKFSPDQQNLIFQGDGYTGKEGLTLTKVSKETGGRALYSTPIHIWDRDTVNVANFVTNGSQVFRESPNGYNVADGFTFFIAPVDTKPQTGGGYLGVFYNGKEYDKTSQTVAVEFDTFYNAAWDPSNKERHIGIDVNSIKSVNTKSWNLQNGVTSYTLNEVVPLKDVVPEWVRIGFSATTGAEFAAQEVHSWSFNSQLGHTSKS
[1]
  glycan array binding signal (z-score): -0.136
[2]
  glycan array binding signal (z-score): -0.117
[3]
  glycan array binding signal (z-score): -0.113
Neu5Ac(a2-3)Gal(b1-4)Glc
  glycan array binding signal (z-score): -0.126
[4]
  glycan array binding signal (z-score): -0.126
[5]
  glycan array binding signal (z-score): -0.112
[6]
  glycan array binding signal (z-score): -0.113
[7]
  glycan array binding signal (z-score): -0.114
[8]
  glycan array binding signal (z-score): -0.13
[9]
  glycan array binding signal (z-score): -0.142
[10]
  glycan array binding signal (z-score): -0.111
[11]
  glycan array binding signal (z-score): -0.093
[12]
  glycan array binding signal (z-score): -0.122
[13]
  glycan array binding signal (z-score): -0.129
[14]
  glycan array binding signal (z-score): -0.115
[15]
  glycan array binding signal (z-score): -0.118
[16]
  glycan array binding signal (z-score): -0.119
[17]
  glycan array binding signal (z-score): -0.046
[18]
  glycan array binding signal (z-score): -0.137
[19]
  glycan array binding signal (z-score): -0.164
[20]
  glycan array binding signal (z-score): -0.14
[21]
  glycan array binding signal (z-score): -0.109
[22]
  glycan array binding signal (z-score): -0.147
[23]
  glycan array binding signal (z-score): -0.116
Neu5Ac(a2-3)GalNAc
  glycan array binding signal (z-score): -0.119
[24]
  glycan array binding signal (z-score): -0.118
[25]
  glycan array binding signal (z-score): -0.116
[26]
  glycan array binding signal (z-score): -0.133
[27]
  glycan array binding signal (z-score): -0.12
Neu5Ac(a2-6)Gal
  glycan array binding signal (z-score): -0.107
Neu5Ac(a2-6)Gal(b1-4)Glc
  glycan array binding signal (z-score): -0.116
[28]
  glycan array binding signal (z-score): -0.103
[29]
  glycan array binding signal (z-score): -0.132
[30]
  glycan array binding signal (z-score): -0.094
[31]
  glycan array binding signal (z-score): -0.146
[32]
  glycan array binding signal (z-score): -0.104
